# Assay results from PubChem BioAssay (NCATS).
# Several values for one entry are separate records, joined by “and”; a condition that tells them apart may be missing. Equal values may be shown once. Inconclusive means that the source gave no clear call. Such entries were picked first, then a sample of the others. A potency beside an inconclusive call is a rough fit, not a confirmed value. Activity calls are given as the source filed them. Calls follow the shape of the dose curve; as a rule, active = well fitted inhibition curve with a large enough effect; inconclusive = small, poorly fitted or top-dose-only effect; inactive = flat fitted curve, though single readings scatter.
# Experiment: Primary qHTS for inhibitors of nuclear receptor binding SET domain protein 2 (NSD2) in an isogenic RCH-ACV NSD2 p.E1099K mutant (9B) (AID 1645876); also: nearly all actives have a fitted effect of over 70% in size
# Settings: RCH-ACV (leukaemia line) NSD2 E1099K (9B) viability, CellTiter-Glo, 72 h; series mostly up to 44.9 µM; activity change, negative = viability loss: at the top concentration
# % is scaled to controls: 0 for no effect and ±100 for the full control effect; potency is read from the fitted curve at half-maximal effect; tags tell the direction and shape of the fitted curve.
SMILES,Potency,"activity change, negative = viability loss"
c1ccc(CNc2nc(NCc3ccccc3)c3ccccc3n2)cc1,active: 5.9 µM,
CC1=C(/C=C/C(C)=C/C=C/C(C)=C/C=C/C=C(C)/C=C/C=C(C)/C=C/C2=C(C)CCCC2(C)C)C(C)(C)CCC1,"inconclusive: 23.5 µM [inhibitor, single point]",
CCC(=O)c1c(O)cc(O)cc1O,,inactive: 0.496%
O=C1OCCN1/N=C/c1ccc([N+](=O)[O-])o1,"inconclusive: 33.5 µM [inhibitor, single point]",
COC(=O)[C@H]1[C@H]2C[C@@H]3c4[nH]c5cc(OC)ccc5c4CCN3C[C@H]2C[C@@H](OC(=O)/C=C/c2cc(OC)c(OC)c(OC)c2)[C@@H]1OC,"inconclusive: 8.58 µM [inhibitor, single point]",
Cc1ccc(C(C)C)cc2c(C)ccc1-2,,inactive: -14.3%
C[C@@H]1C[C@H]2[C@@H]3CCC4=CC(=O)C=C[C@]4(C)[C@@]3(F)[C@@H](O)C[C@]2(C)[C@@]1(O)C(=O)CO,"inconclusive: 33.5 µM [inhibitor, single point] and inconclusive: 105 nM [inhibitor, full curve]",
C#Cc1cccc(Nc2ncnc3cc(OCCOC)c(OCCOC)cc23)c1,"active: 8.41 µM and inconclusive: 14.8 µM [inhibitor, partial curve]",
CCOC(=O)C1=C(C)NC(C)=C(C(=O)OC)C1c1cccc([N+](=O)[O-])c1 (stereo not given),"inconclusive: 33.5 µM [inhibitor, single point]",
C[C@H](CCC(=O)O)[C@H]1CCC2C3C[C@H](O)[C@@H]4C[C@H](O)CC[C@]4(C)C3CC[C@@]21C (stereo not given in full),,inactive: 9.32%
